# Measured values taken from the supplement of paper PMC8728848.
# Some of the results follow.
# B1: Gal-9-hFc (Mus musculus), O08573-2 (protein)
# chain: MALFSAQSPYINPIIPFTGPIQGGLQEGLQVTLQGTTKSFAQRFVVNFQNSFNGNDIAFHFNPRFEEGGYVVCNTKQNGQWGPEERKMQMPFQKGMPFELCFLVQRSEFKVMVNKKFFVQYQHRVPYHLVDTIAVSGCLKLSFITFQTQNFRPAHQAPMAQTTIHMVHSTPGQMFSTPGIPPVVYPTPAYTIPFYTPIPNGLYPSKSIMISGNVLPDATRFHINLRCGGDIAFHLNPRFNENAVVRNTQINNSWGQEERSLLGRMPFSRGQSFSVWIICEGHCFKVAVNGQHMCEYYHRLKNLQDINTLEVAGDIQLTHVQT
# How the values were obtained:
# Test in all cases: glycan array binding signal (z-score within array); higher = stronger binding
# Conditions in all cases: glycan notation: IUPAC condensed, linker removed
# Gal(a1-3)Gal = target: Gal(a1-3)Gal
# Summary of the method: (§1)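 From the Consortium for Functional Glycomics database, 3228 arrays were curated, keeping only those whose protein sequence was available. Binding is given as a within-array Z-score averaged across arrays sharing a protein sequence and across linkers. Negative Z-scores can be read as non-binding.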
# Gal(a1-3)Gal(b1-3)GlcNAc = target: Gal(a1-3)Gal(b1-3)GlcNAc
# Summary of the method: as §1
# [1] = target: Gal(a1-3)Gal(b1-3)GlcNAc(b1-2)Man
# Summary of the method: as §1
# [2] = target: Gal(a1-3)Gal(b1-3)GlcNAc(b1-2)Man(a1-3)[Gal(a1-3)Gal(b1-3)GlcNAc(b1-2)Man(a1-6)]Man(b1-4)GlcNAc(b1-4)GlcNAc
# Summary of the method: as §1
# [3] = target: Gal(a1-3)Gal(b1-3)GlcNAc(b1-3)GalNAc
# Summary of the method: as §1
# [4] = target: Gal(a1-3)Gal(b1-3)GlcNAc(b1-6)GalNAc
# Summary of the method: as §1
# [5] = target: Gal(a1-3)Gal(b1-3)[Fuc(a1-4)]GlcNAc(b1-2)Man(a1-3)[Gal(a1-3)Gal(b1-3)[Fuc(a1-4)]GlcNAc(b1-2)Man(a1-6)]Man(b1-4)GlcNAc(b1-4)GlcNAc
# Summary of the method: as §1
# Gal(a1-3)Gal(b1-4)Glc = target: Gal(a1-3)Gal(b1-4)Glc
# Summary of the method: as §1
# Gal(a1-3)Gal(b1-4)GlcNAc = target: Gal(a1-3)Gal(b1-4)GlcNAc
# Summary of the method: as §1
# [6] = target: Gal(a1-3)Gal(b1-4)GlcNAc(b1-2)Man
# Summary of the method: as §1
# [7] = target: Gal(a1-3)Gal(b1-4)GlcNAc(b1-2)Man(a1-3)[Gal(a1-3)Gal(b1-4)GlcNAc(b1-2)Man(a1-6)]Man(b1-4)GlcNAc(b1-4)GlcNAc
# Summary of the method: as §1
# [8] = target: Gal(a1-3)Gal(b1-4)GlcNAc(b1-3)GalNAc
# Summary of the method: as §1
# [9] = target: Gal(a1-3)Gal(b1-4)GlcNAc(b1-6)GalNAc
# Summary of the method: as §1
# [10] = target: Gal(a1-3)Gal(b1-4)[Fuc(a1-3)]GlcNAc
# Summary of the method: as §1
# [11] = target: Gal(a1-3)Gal(b1-4)[Fuc(a1-3)]GlcNAc(b1-2)Man(a1-3)[Gal(a1-3)Gal(b1-4)[Fuc(a1-3)]GlcNAc(b1-2)Man(a1-6)]Man(b1-4)GlcNAc(b1-4)GlcNAc
# Summary of the method: as §1
# Gal(a1-3)GalNAc = target: Gal(a1-3)GalNAc
# Summary of the method: as §1
# [12] = target: Gal(a1-3)[Gal(a1-4)]Gal(b1-4)GlcNAc
# Summary of the method: as §1
# [13] = target: Gal(a1-4)Gal(b1-3)GlcNAc(b1-2)Man(a1-3)[Gal(a1-4)Gal(b1-3)GlcNAc(b1-2)Man(a1-6)]Man(b1-4)GlcNAc(b1-4)GlcNAc
# Summary of the method: as §1
# Gal(a1-4)Gal(b1-4)Glc = target: Gal(a1-4)Gal(b1-4)Glc
# Summary of the method: as §1
# Gal(a1-4)Gal(b1-4)GlcNAc = target: Gal(a1-4)Gal(b1-4)GlcNAc
# Summary of the method: as §1
# [14] = target: Gal(a1-4)Gal(b1-4)GlcNAc(b1-2)Man(a1-3)[Gal(a1-4)Gal(b1-4)GlcNAc(b1-2)Man(a1-6)]Man(b1-4)GlcNAc(b1-4)GlcNAc
# Summary of the method: as §1
# [15] = target: Gal(a1-4)Gal(b1-4)GlcNAc(b1-3)Gal(b1-4)Glc
# Summary of the method: as §1
# Gal(a1-4)GlcNAc = target: Gal(a1-4)GlcNAc
# Summary of the method: as §1
# Gal(a1-6)Glc = target: Gal(a1-6)Glc
# Summary of the method: as §1
# Gal(b1-2)Gal = target: Gal(b1-2)Gal
# Summary of the method: as §1
# Gal(b1-3)Gal = target: Gal(b1-3)Gal
# Summary of the method: as §1
# Gal(b1-3)Gal(b1-4)GlcNAc = target: Gal(b1-3)Gal(b1-4)GlcNAc
# Summary of the method: as §1
# Gal(b1-3)GalNAc = target: Gal(b1-3)GalNAc
# Summary of the method: as §1
# [16] = target: Gal(b1-3)GalNAc(a1-3)[Fuc(a1-2)]Gal(b1-4)Glc
# Summary of the method: as §1
# [17] = target: Gal(b1-3)GalNAc(a1-3)[Fuc(a1-2)]Gal(b1-4)GlcNAc
# Summary of the method: as §1
# Gal(b1-3)GalNAc(b1-3)Gal = target: Gal(b1-3)GalNAc(b1-3)Gal
# Summary of the method: as §1
# [18] = target: Gal(b1-3)GalNAc(b1-3)Gal(a1-4)Gal(b1-4)Glc
# Summary of the method: as §1
# [19] = target: Gal(b1-3)GalNAc(b1-4)Gal(b1-4)Glc
# Summary of the method: as §1
# [20] = target: Gal(b1-3)GalNAc(b1-4)[Neu5Ac(a2-3)]Gal(b1-4)Glc
# Summary of the method: as §1
# Gal(b1-3)GlcNAc = target: Gal(b1-3)GlcNAc
# Summary of the method: as §1
# [21] = target: Gal(b1-3)GlcNAc(a1-3)Gal(b1-4)GlcNAc
# Summary of the method: as §1
# [22] = target: Gal(b1-3)GlcNAc(a1-6)Gal(b1-4)GlcNAc
# Summary of the method: as §1
# Gal(b1-3)GlcNAc(b1-2)Man = target: Gal(b1-3)GlcNAc(b1-2)Man
# Summary of the method: as §1
binder,measurement,setting,value
B1,glycan array binding signal (z-score),Gal(a1-3)Gal,0.14
same,glycan array binding signal (z-score),Gal(a1-3)Gal(b1-3)GlcNAc,1.06
same,glycan array binding signal (z-score),[1],-0.188
same,glycan array binding signal (z-score),[2],0.737
same,glycan array binding signal (z-score),[3],-0.357
same,glycan array binding signal (z-score),[4],-0.355
same,glycan array binding signal (z-score),[5],0.868
same,glycan array binding signal (z-score),Gal(a1-3)Gal(b1-4)Glc,0.167
same,glycan array binding signal (z-score),Gal(a1-3)Gal(b1-4)GlcNAc,-0.217
same,glycan array binding signal (z-score),[6],-0.328
same,glycan array binding signal (z-score),[7],0.065
same,glycan array binding signal (z-score),[8],-0.421
same,glycan array binding signal (z-score),[9],-0.323
same,glycan array binding signal (z-score),[10],-0.64
same,glycan array binding signal (z-score),[11],-0.043
same,glycan array binding signal (z-score),Gal(a1-3)GalNAc,-0.439
same,glycan array binding signal (z-score),[12],-0.295
same,glycan array binding signal (z-score),[13],-0.289
same,glycan array binding signal (z-score),Gal(a1-4)Gal(b1-4)Glc,0.77
same,glycan array binding signal (z-score),Gal(a1-4)Gal(b1-4)GlcNAc,-0.346
same,glycan array binding signal (z-score),[14],-0.328
same,glycan array binding signal (z-score),[15],-0.168
same,glycan array binding signal (z-score),Gal(a1-4)GlcNAc,-0.452
same,glycan array binding signal (z-score),Gal(a1-6)Glc,0.19
same,glycan array binding signal (z-score),Gal(b1-2)Gal,0.277
same,glycan array binding signal (z-score),Gal(b1-3)Gal,0.036
same,glycan array binding signal (z-score),Gal(b1-3)Gal(b1-4)GlcNAc,-0.119
same,glycan array binding signal (z-score),Gal(b1-3)GalNAc,-0.126
same,glycan array binding signal (z-score),[16],0.123
same,glycan array binding signal (z-score),[17],-0.259
same,glycan array binding signal (z-score),Gal(b1-3)GalNAc(b1-3)Gal,-0.517
same,glycan array binding signal (z-score),[18],-0.158
same,glycan array binding signal (z-score),[19],-0.105
same,glycan array binding signal (z-score),[20],-0.367
same,glycan array binding signal (z-score),Gal(b1-3)GlcNAc,-0.214
same,glycan array binding signal (z-score),[21],-0.259
same,glycan array binding signal (z-score),[22],-0.477
same,glycan array binding signal (z-score),Gal(b1-3)GlcNAc(b1-2)Man,-0.243
